Reference: PubChem BioAssay AID1508623 (National Center for Advancing Translational Sciences (NCATS), 2021)
The campaign covered roughly 48,000 compounds. About 450 (0.94%) were called active. Roughly 19% stayed inconclusive and do not appear here. Calls come from the whole dose curve; as a rule, active = well fitted inhibition curve with a large enough effect; inconclusive = small, poorly fitted or top-dose-only effect; inactive = no such curve, though single readings can be large or run the other way. The list shows a part of the results.

Test: Primary qHTS for Identification of Small Molecule Inhibitors of Huntingtin Promoter Activity; note: nearly all actives have a fitted effect of over 50% in size
Details: HEK293 HTT promoter firefly luciferase reporter (activity 0% = vehicle and -100% = no light), 24 h; series mostly up to 57.5 µM; activity change, negative = inhibition: at the top concentration
In short: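 HEK293 cells carrying firefly luciferase reporters were seeded at 2,500 per well in Opti-MEM and cultured for 24 h. They were then treated with compounds at up to 57.5 uM final for 24 h at 37 degrees C before Dual-Glo luminescence readout.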

Activity change, negative = inhibition, inactive:
CN(C)S(=O)(=O)n1cc(/C=C(\NC(=O)c2ccccc2)C(=O)NCCCn2ccnc2)c2ccccc21 -0.366%
COc1ccc(N2CC(NC(=O)CCc3ccccc3)CC2=O)cc1OC (stereo not given) 3.58%
Cc1ccc2oc(=O)n(CCCOc3ccc(Cl)cc3)c2c1 -5.13%
CCOC(=O)c1ccccc1NC(=O)N1CCC(N2CCN(Cc3ccccc3)C(=O)C2=O)CC1 2.48%
O=C(Cn1c(=O)n(CC2CCCO2)c(=O)c2ccccc21)Nc1cccc(Cl)c1 (stereo not given) -11.3%
COc1cc(OC)c(Nc2nc3ccccc3nc2-n2nc(C)cc2C)cc1Cl -27.7%
COC(=O)c1scc(-c2ccc(C)cc2)c1S(=O)(=O)N1CCN(c2ccc(OC)cc2)CC1 -22.3%
CCS(=O)(=O)N1CCc2cc(C(=O)NCc3ccccc3)ccc21 6.41%
Cc1ccc(-c2nc3nc(C)cc(Nc4ccccc4O)n3n2)cc1 -6.7%
Cc1ccc(CCn2c3c(c4cc(Cl)ccc42)CN(C)CC3)cn1 -2.98%
COc1cc(OC)c(NS(=O)(=O)c2cc(-c3cnc(C)o3)ccc2OC)cc1Cl -29.4%
Cc1ccc(NC(=O)CN2C(=O)CCn3nc(-c4cccn4C)cc32)cc1 11.9%
COCCCNc1nc2c(S(=O)(=O)c3ccc(C)c(C)c3)nnn2c2ccc(Cl)cc12 -5.48%
Cc1ccc2oc(-c3cc(NC(=O)c4ccco4)ccc3Cl)nc2c1 -4.71%
CCOC(=O)c1ccc(N2C(=O)c3n[nH]c(-c4ccco4)c3C2c2ccc(O)c(OC)c2)cc1 (stereo not given) -35.1%
CCN(CC)CCNC(=O)c1nn(C)c2c1CS(=O)(=O)c1ccccc1-2 -4.12%
CCC(=O)N1c2ccccc2CC1C(=O)NCCc1ccc(C)cc1 (stereo not given) 0%
Cc1ccc(CNC(=O)c2nn(C)c3c2CS(=O)(=O)c2ccccc2-3)cc1 -24.3%
Cc1cn(C)c(CC(=O)NCc2ccccc2Cl)c1C(=O)O -5.23%
O=C(CSCc1nc2cccnc2n1C1CCCCC1)NCc1cccc(Cl)c1 -26.2%
COc1ccc(-n2nc(C(=O)N3CCN(c4cccc(C)c4C)CC3)c3c4ccccc4n(C)c3c2=O)cc1 -6.03%
CCC(C)OC(=O)/C(C#N)=C\c1ccc(-c2ccccc2Cl)o1 (stereo not given) 18.1%
CCOc1ccc(N(CC(=O)NCc2ccc(C)cc2)S(=O)(=O)c2c(C)noc2C)cc1 -1.81%
Cc1cccc(NC(=O)Cn2c(=O)nc(-c3ccccc3)c3ccccc32)c1C -15%
COc1ccc(C)cc1NC(=O)C1CCCN(S(=O)(=O)c2ccc3[nH]c(=O)ccc3c2)C1 (stereo not given) -23.6%
COc1cc(NC(=O)CN2C(=O)CN(C)C(=O)c3ccccc32)cc(OC)c1OC 7.82%
CCOC(=O)c1c(C)[nH]c(C)c1S(=O)(=O)N1CCC(C(=O)Nc2ccc(C)cn2)CC1 -16.5%
CCn1c2ccccc2c2cc(NC(=O)COc3cccc(C)c3)ccc21 -3.65%
CCOc1cc2[nH]c(=O)n(CCCC(=O)N3CCN(c4ccc(OC)cc4)CC3)c(=O)c2cc1OCC -22.6%
Cc1ccc(F)c(NC(=O)Nc2ccc3snnc3c2)c1 9.72%
CCOc1ccc(CCNC(=O)c2cn(CC)c3ccc(S(=O)(=O)N4CCCCCC4)cc3c2=O)cc1OCC 4.61%
O=C(NCCN1CCN(c2cccc(Cl)c2)CC1)C1COc2ccccc2C1 (stereo not given) -9.28%
Cc1cccc(CNC(=O)Cn2ccc3cc(S(=O)(=O)N4CCCC4)ccc32)c1 -5.92%
Cc1ccc(S(=O)(=O)N(CCc2ccccc2)CC(=O)Nc2cc(C)ccc2C)cc1 -38.7%
CN(C)S(=O)(=O)c1ccc(C(=O)NC2CC(=O)N(c3ccc4c(c3)OCCO4)C2)cc1 (stereo not given) -14.4%
COc1cc(C2C(C(=O)Nc3ccc(C)cc3C)=C(C)Nc3nc4ccccc4n32)cc(OC)c1OC (stereo not given) -2.74%
Cn1cc(C(=O)NCc2ccccc2)c(=O)c2cc(S(=O)(=O)N3CCOCC3)ccc21 -19.2% [at 11.5 µM]
Cc1cccc(NC(=O)Cn2nnc(C(=O)Nc3ccccc3Br)c2N)c1C -3.4%
CCOc1ccccc1NC(=O)c1nc2nc(C)cc(C(F)F)n2n1 1.58%
O=C(NC1CC(=O)N(c2ccc(Cl)cc2)C1)c1ccc2c(c1)OCO2 (stereo not given) 10.8%
COc1cccc(N2CCN(C(=O)C3CCN(S(=O)(=O)c4c(C)noc4C)CC3)CC2)c1 -1.74%
CSc1ccc(CCNC(=O)CN2C(=O)c3cccnc3Oc3ccc(C)cc32)cc1 -2.84%
CCCN1CCN(CCCNC(=O)Cn2nc(CC)n3c(cc4occc43)c2=O)CC1 -15.4%
Cc1ccc2c(=O)cc(C(=O)N(Cc3ccc(N(C)C)cc3)C3CCS(=O)(=O)C3)oc2c1 (stereo not given) 24.2%
CCc1cccc(C)c1NC(=O)CSc1nc2ccccc2nc1N1CCOCC1 -28.4%
CC1(C)O[C@H]2[C@@H](O1)[C@@H](C(=O)Nc1ccc(F)c(F)c1)O[C@@H]1OC(C)(C)O[C@@H]12 -7.19%
Cc1cc(F)ccc1NS(=O)(=O)c1c(C)nc2scc(C)n2c1=O -24.3%
CCOc1ccc(CCNC(=O)Cn2nc(CC)n3c(cc4sccc43)c2=O)cc1 -6.45%
Cc1nn2c(C)c(C(=O)NCC(C)c3ccccc3)cnc2c1-c1ccccc1 (stereo not given) -10.5%
O=C(Nc1c2c(nn1-c1ccc(Cl)cc1)CS(=O)(=O)C2)c1ccccc1F -19.1%
COc1ccc(C2NC(=O)N(C)C3=C2C(=O)N(c2ccc(F)cc2)C3)cc1 (stereo not given) -19.8%
Cc1cccc(NC(=O)CSc2nccn2-c2cccc(Cl)c2)c1C -20.7%
CCC(C(=O)NCc1ccccc1Cl)n1nc(C)c2sc3ccccc3c2c1=O (stereo not given) -2.28%
CSc1ccc(/C=C2/C(C)=C(CC(=O)O)c3cc(F)ccc32)cc1 -1.57%
Cc1ccc(NC(=O)c2sc(-n3nc(C)c(Cc4ccc5c(c4)OCO5)c3C)nc2C)cc1C -8.76%
CCOc1cc(C2c3c(-c4ccccc4O)n[nH]c3C(=O)N2Cc2cccnc2)ccc1O (stereo not given) -10.8%
O=C(CCCn1c(=O)c2sccc2n(Cc2cccc(Cl)c2)c1=O)NCc1ccc2c(c1)OCO2 -5.19%
CCOC(=O)CN1C(=O)c2cccnc2Oc2ccccc21 -14.6%
Cc1cc(C)cc(NC(=O)CSCc2cc(=O)c3ccc(C)c(C)c3[nH]2)c1 -1.47%
CNS(=O)(=O)c1cn(CC(=O)N2CCN(c3cc(C)ccc3C)CC2)cc1S(=O)(=O)NC 7.48%
O=c1cc(-c2ccccc2)n2c(SCc3cccc([N+](=O)[O-])c3)nnc2[nH]1 -7.32%
CCOc1cc(C(=O)N2CCC(c3ccncc3)CC2)cc(OCC)c1OCC -15.7%
NC(=O)C1CCN(C(=O)Cn2c(-c3cccs3)cc3ccccc32)CC1 -21.7%
CCOc1ccc(NC(=O)CN2CCN(CC(=O)Nc3ccccc3OCC)CC2)cc1 -10.5%
COc1ccc(CCNC(=O)CCn2c(=O)c3cccn3c3cccnc32)cc1OC -5.96%
CCc1ccccc1Nc1nc2ccccc2n2cnnc12 -29%
COc1ccccc1-n1nc(-c2ccccc2)c2cnc3cc(C(F)(F)F)ccc3c21 -8.67%
CCOC(=O)c1ccc(NC(=O)COC(=O)c2cn(CC)c3nc(C)ccc3c2=O)cc1 -0.856%
CC1CN(S(=O)(=O)c2ccc3c(c2)NC(=O)CC(=O)N3)c2ccccc2O1 (stereo not given) 4.79%
COc1ccc(-c2oc3ncn4nc(-c5ccccc5C)nc4c3c2-c2ccc(OC)cc2)cc1 -18.4% [at 11.5 µM]
Cc1cccc(C)c1OC(=O)CSc1nnc(-c2cccs2)o1 2.99%
CCOC(=O)c1ccc(C#Cc2ccc3c(c2)C(C)(C)CCS3)nc1
Cc1ccc(C)c(CN2C(=O)c3ccccc3S(=O)(=O)c3ccc(C(=O)N4CCN(c5ccccc5F)CC4)cc32)c1 -8.5%
COc1ccc(CNC(=O)CCc2nnc3n(CC(C)C)c(=O)c4ccccc4n23)cc1 -8.99%
COc1ccc(C)cc1NS(=O)(=O)c1ccc2[nH]c(=O)c(=O)[nH]c2c1 -8.36%
CCn1ccc2cc(S(=O)(=O)N3CCCN(C(=O)NCCOC)CC3)ccc21 -26.9%
CCS(=O)(=O)N1CCc2cc(C(=O)Nc3cc(C(F)(F)F)ccc3Cl)ccc21 -21.1%
COc1cccc(NC(=O)Cn2c(=O)n(CCCCC(=O)NCCc3ccccc3)c(=O)c3ccccc32)c1 -12.1%
O=C(CSc1nnc2ccc3ccccc3n12)c1ccc(F)cc1 73.2%
COc1ccccc1CNC(=O)c1cnc2sc(N3CCCCCC3)nn2c1=O -9.12%
O=c1c2ccccc2n(Cc2ccccc2F)c(=O)n1-c1cccc(F)c1 -23.9%
Cc1ccc(C(=O)Nc2onc3c2CCCC3)cc1 56.3%
CSc1ccc(CNC(=O)CCn2c(=O)c3cccn3c3ccc(F)cc32)cc1 -8.05%
Cc1ccccc1C(=O)Nc1ccc2c(c1)CCCN2C(=O)c1cccs1 -27.9%
COc1ccc(C(=O)N2CCC(c3nc(-c4ccc(S(=O)(=O)N5CCCC5)cc4)no3)CC2)cc1 -18.3%
COC(=O)c1cc2occc2n1Cc1cccc(C)c1 -21.6%
COCCNC(=O)CCN1C(=O)c2cccnc2Oc2ccc(C)cc21 3.6%
Cc1ccc(-n2nc(C(=O)Nc3ccc(C)c(F)c3)c3c4ccccc4n(C)c3c2=O)cc1 -15.8%
CC(=O)Nc1nonc1-c1nnc(SCC(=O)Nc2ccc(C)c(Cl)c2)n1-c1ccccc1 -10.8%
CCOc1ccc(C(=O)c2cnc3ccc(Cl)cc3c2S(=O)(=O)c2ccc(C)cc2)cc1 -11.9%
CCc1ccccc1Nc1nc2cc(Cl)c(Cl)cc2nc1-n1nc(C)cc1C -13.8%
Cc1ccc(-n2nc(CO)c(C(=O)NCCCc3ccccc3)n2)cc1 -9.16%
Cc1ccc(-n2ncc3c(Nc4ccccc4C)ncnc32)cc1 63.9%
COc1cccc(Cn2c(NCc3ccc(C)cc3)nc3c2c(=O)n(C)c(=O)n3C)c1 9.08% [at 11.5 µM]
CC(=O)c1ccc(NC(=O)c2ccc(-c3nc(COc4ccc(C)cc4)c(C)o3)cc2)cc1 -26%
